First the molecules themselves.
B1: Myostatin-2xTN8-19 kc peptibody (Fc fusion)
chain: [left out - human IgG1 Fc]GSGSATGGSGSTASSGSGSATGQGHCTRWPWMCPPYGSGSATGGSGSTASSGSGSATGQGHCTRWPWMCPPY
notes: also called 2xmTN8-19 (parent)
B2: mTN8Con6-3 peptibody (Fc fusion)
chain: [left out - human IgG1 Fc]GGGGGAQWTGWYQCYGGHLWCYDLRRKLE
B3: mTN8-19-23 peptibody (Fc fusion)
chain: [left out - human IgG1 Fc]GGGGGAQPGAHDHCTRWPWMCPPQSRYLE
B4: mL20-4 peptibody (Fc fusion)
chain: [left out - human IgG1 Fc]GGGGGAQMQHDMSMLYGLVELLESLGHQILE
B5: mTN8Con6-5 peptibody (Fc fusion)
chain: [left out - human IgG1 Fc]GGGGGAQESRWYPCYEGHLWCFDLTETLE
B6: mTN8-19-21(-LE) peptibody (Fc fusion)
chain: [left out - human IgG1 Fc]GGGGGAQSEYQGLCTRWPWMCPPQGWK
B7: mTN8-19-33(-LE) peptibody (Fc fusion)
chain: [left out - human IgG1 Fc]GGGGGAQPESQGHCTRWPWMCPPQGWG
B8: mTN8-19-6 peptibody (Fc fusion)
chain: [left out - human IgG1 Fc]GGGGGAQGVNQGQCTRWRWMCPPNGWELE
B9: Myostatin-TN12-34 peptibody (Fc fusion)
chain: MAHWCEQGPWRYGNICMAYGGGGG[left out - human IgG1 Fc]GGGGGAHWCEQGPWRYGNICMAY
B10: mL15-9 peptibody (Fc fusion)
chain: [left out - human IgG1 Fc]GGGGGAQQIEMLESLLDLLRDMVPMSNAFLE
B11: mTN8-19-4 peptibody (Fc fusion)
chain: [left out - human IgG1 Fc]GGGGGAQMITQGQCTRWPWMCPPQPSGLE
B12: mTN8-19-16 peptibody (Fc fusion)
chain: [left out - human IgG1 Fc]GGGGGAQYQTQGLCTRWPWMCPPQSQRLE
B13: mTN8-19-12 peptibody (Fc fusion)
chain: [left out - human IgG1 Fc]GGGGGAQSYWQGQCTRWPWMCPPQWRGLE
B14: mTN8-19-13 peptibody (Fc fusion)
chain: [left out - human IgG1 Fc]GGGGGAQMWQQGHCTRWPWMCPPQGWGLE
B15: mL20-3 peptibody (Fc fusion)
chain: [left out - human IgG1 Fc]GGGGGAQTSRDMSLLWELLEELDRLGHQRLE
B16: mTN8-19-11 peptibody (Fc fusion)
chain: [left out - human IgG1 Fc]GGGGGAQIYPHDQCTRWPWMCPPQPYPLE
B17: mL20-2 peptibody (Fc fusion)
chain: [left out - human IgG1 Fc]GGGGGAQTQRDMSMLDGLLEVLDQLRQQRLE
B18: mL2-7 peptibody (Fc fusion)
chain: MAQRMEMLESLFELLKEIVPMSKAGLEGGGGG[left out - human IgG1 Fc]
B19: mL2-9 peptibody (Fc fusion)
chain: MAQQMELLDSLFELLKEIVPKSQPALEGGGGG[left out - human IgG1 Fc]
B20: Myostatin-Linear-20 peptibody (Fc fusion)
chain: MYREMSMLEGLLDVLERLQHYGGGGG[left out - human IgG1 Fc]
B21: mTN8-19-28 peptibody (Fc fusion)
chain: [left out - human IgG1 Fc]GGGGGAQSGPQGHCTRWPWMCAPQGWFLE
B22: mTN8-19-29 peptibody (Fc fusion)
chain: [left out - human IgG1 Fc]GGGGGAQTLVQGHCTRWPWMCPPQRWVLE
B23: mL15-7 peptibody (Fc fusion)
chain: [left out - human IgG1 Fc]GGGGGAQQVDSLQQVLLWLEHKLALGPQVLE

The values below come from patent US20140294866A1 (Amgen, published 2014).

As usually defined, the Kd is the free concentration of one partner at which half of the binding sites on the other are occupied at equilibrium, for simple one-to-one binding.

The target in one assay is T1, recombinant mature myostatin (human, produced in E. coli) (human, UniProt O14793 267-375).
T1 sequence (looked up): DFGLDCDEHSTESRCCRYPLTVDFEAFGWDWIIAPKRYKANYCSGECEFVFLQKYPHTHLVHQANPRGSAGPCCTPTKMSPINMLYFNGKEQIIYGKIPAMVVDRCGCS
Put plainly: cell-based or functional assay.
Regarding B1, the “IC50 (nM), C2C12 pMARE-luc myostatin activity assay” value was about 9 nM.

The target of a further assay is T1, recombinant mature myostatin (human, …). Kind of assay: KinExA solution based assay or BIAcore assay (not said which). In general terms: Kinetic exclusion samples the free partner from a solution-phase mixture.
Regarding B1, the Kd is over 1 nM.

For the next assay, the target named is T2, recombinant mature myostatin (human, produced in E. coli) (human) (UniProt O14793).
T2 sequence (looked up): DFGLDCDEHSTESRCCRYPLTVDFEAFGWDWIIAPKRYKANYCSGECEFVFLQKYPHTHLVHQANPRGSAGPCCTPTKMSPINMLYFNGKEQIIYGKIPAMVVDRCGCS
Kind of assay: cell-based or functional assay.
Regarding B2, the IC50 (nM), C2C12 pMARE-luc myostatin activity assay came to 86.8 nM.

In the case of B3, the IC50 (nM), C2C12 pMARE-luc myostatin activity assay was found to be 6.58 nM.

With B4, the IC50 (nM), C2C12 pMARE-luc myostatin activity assay is 160 nM.

In the case of B5, the IC50 (nM), C2C12 pMARE-luc myostatin activity assay stood at 2380 nM.

In the case of B6, the IC50 (nM), C2C12 pMARE-luc myostatin activity assay was determined as 2.49 nM.

B7: the IC50 (nM), C2C12 pMARE-luc myostatin activity assay came out at 1.81 nM.

As for B8, the IC50 (nM), C2C12 pMARE-luc myostatin activity assay stood at 17.3 nM.

For the molecule B9, the IC50 (nM), C2C12 pMARE-luc myostatin activity assay is 30 nM.

As to B10, the IC50 (nM), C2C12 pMARE-luc myostatin activity assay was found to be 354 nM.

B11: the IC50 (nM), C2C12 pMARE-luc myostatin activity assay amounted to 16.7 nM.

Turning to B12, the IC50 (nM), C2C12 pMARE-luc myostatin activity assay was found to be 4.65 nM.

Turning to B13, the IC50 (nM), C2C12 pMARE-luc myostatin activity assay turned out to be 980 nM.

For the molecule B14, the IC50 (nM), C2C12 pMARE-luc myostatin activity assay was 20 nM.

For B15, the IC50 (nM), C2C12 pMARE-luc myostatin activity assay was determined as 158 nM.

For B16, the IC50 (nM), C2C12 pMARE-luc myostatin activity assay came to 28.7 nM.

With B17, the IC50 (nM), C2C12 pMARE-luc myostatin activity assay worked out at 123 nM.

As for B18, the IC50 (nM), C2C12 pMARE-luc myostatin activity assay was determined as 90.2 nM.

As for B19, the IC50 (nM), C2C12 pMARE-luc myostatin activity assay turned out to be 106 nM.

On to B20, for which the IC50 (nM), C2C12 pMARE-luc myostatin activity assay came to 11 nM.

Regarding B21, the IC50 (nM), C2C12 pMARE-luc myostatin activity assay stood at 4.39 nM.

Consider B22, for which the IC50 (nM), C2C12 pMARE-luc myostatin activity assay was determined as 6.36 nM.

For B23, the IC50 (nM), C2C12 pMARE-luc myostatin activity assay was 32.8 nM.

The target of a further assay is T1, recombinant mature myostatin (human, …). Put plainly: BIAcore, myostatin immobilized on CM5 chip. Background: SPR reads the build-up and loss of mass on a sensor chip optically.
As for B1, the Kd was about 2 nM.
